Measurements as given in article PMC6919601, “Identification of Plasmodium dipeptidyl aminopeptidase allosteric inhibitors by high throughput screening” (PLoS ONE, 2019).
Hit rate of the full screen: of about 110,000 compounds, about 230 (0.21%) showed an effect of 50% or more. The list shows a part of the results.

Each compound was assayed against DPAP1 (Plasmodium falciparum, UniProt Q8IIJ9) (assay: primary screen, percent inhibition; read by cleavage of a fluorogenic dipeptide substrate; higher = more effect of the substance).
Set-up: species or system P. falciparum D10 trophozoite lysates; single well
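Also: 30 min substrate incubation versus DMSO and 10 µM JCP410 controls.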

Sequence of DPAP1 (Q8IIJ9 whole entry, looked up): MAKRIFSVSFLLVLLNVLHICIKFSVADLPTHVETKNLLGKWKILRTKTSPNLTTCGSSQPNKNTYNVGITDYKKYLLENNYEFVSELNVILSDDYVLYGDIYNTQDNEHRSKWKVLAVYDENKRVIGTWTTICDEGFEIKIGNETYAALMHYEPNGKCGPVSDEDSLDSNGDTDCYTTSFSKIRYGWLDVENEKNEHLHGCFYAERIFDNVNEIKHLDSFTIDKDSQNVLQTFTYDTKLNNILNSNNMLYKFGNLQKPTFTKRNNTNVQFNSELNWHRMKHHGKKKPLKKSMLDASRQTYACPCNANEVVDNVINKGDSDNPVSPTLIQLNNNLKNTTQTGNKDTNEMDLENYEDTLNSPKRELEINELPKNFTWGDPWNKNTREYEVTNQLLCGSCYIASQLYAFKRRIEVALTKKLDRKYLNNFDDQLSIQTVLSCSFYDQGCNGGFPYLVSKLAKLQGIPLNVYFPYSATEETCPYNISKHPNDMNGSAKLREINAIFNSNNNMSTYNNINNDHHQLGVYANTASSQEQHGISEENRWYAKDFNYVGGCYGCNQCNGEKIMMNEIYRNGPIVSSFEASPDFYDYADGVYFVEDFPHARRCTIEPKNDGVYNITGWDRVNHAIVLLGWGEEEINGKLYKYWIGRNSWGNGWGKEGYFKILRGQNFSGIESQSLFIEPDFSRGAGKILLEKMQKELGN

Which “% Inhibition @ 10 uM” value does the source give for `CCC(NS(=O)(=O)c1ccc(C(=O)O)cc1)C12C[C@H]3C[C@@H](C1)C[C@@H](C2)C3` (some centres unmarked) here?
The value was -1.07%.

With `O=[N+]([O-])c1ccc(N2CCN(Cc3cccs3)CC2)cc1` as the compound, how does the “% Inhibition @ 10 uM” value read?
Its value is -3.71%.

How did the “% Inhibition @ 10 uM” value turn out when `COc1ccc(C2C3=C(CCCC3=O)N(CC(=O)O)C3=C2C(=O)CCC3)cc1` was run?
The value was 0.389%.

With `COc1ccc(C(C)NCc2cccnc2)cc1` (centres unmarked) as the compound, how does the “% Inhibition @ 10 uM” value read?
Its value is -7.96%.

With `Cc1ccc(-c2nnc(NCc3ccccc3)c3ccccc23)cc1S(=O)(=O)N1CCOCC1` as the compound, how does the “% Inhibition @ 10 uM” value read?
The value was -3.41%.

Which “% Inhibition @ 10 uM” value does the source give for `CCN(CC)CCN(C)Cc1cc(F)ccc1F` here?
Its value is -1.75%.

For `CC(C)CNC(=O)CN(Cc1ccc(Br)cc1)S(=O)(=O)c1ccc(Cl)cc1`, which “% Inhibition @ 10 uM” value is on record?
Its value is -1.63%.

Which “% Inhibition @ 10 uM” value does the source give for `CN1CCCC1CCNC1CCc2ccccc2C1` (centres unmarked) here?
Its value is -6.62%.

For `COc1ccccc1/C=C/C=C1N=C(/C=C/c2ccc(C)cc2)OC\1=O`, which “% Inhibition @ 10 uM” value is on record?
The value was 3.74%.

Which “% Inhibition @ 10 uM” value does the source give for `O=C(O)CCNC1=NC(=O)CS1` here?
The value was -1.82%.

With `CN(C(=O)C1CC(c2ccc(F)cc2)=NO1)C1CCCCC1` (centres unmarked) as the compound, how does the “% Inhibition @ 10 uM” value read?
Its value is -0.431%.

How did the “% Inhibition @ 10 uM” value turn out when `CCCC(=O)Nc1nc2nc(C)cc(C)n2n1` was run?
The value was 2.05%.

With `CC(C)NC(=O)c1ccc(Cn2c(SCc3ccc(F)cc3)nc3ccncc32)cc1` as the compound, how does the “% Inhibition @ 10 uM” value read?
The value was 1.21%.

For `CCCCOC(=O)c1ccc2c(c1)C(=O)N(c1ccc([N+](=O)[O-])cc1)C2=O`, which “% Inhibition @ 10 uM” value is on record?
Its value is -2%.

`Cc1ccc2ccc(S(=O)(=O)N3CCCCC3)cc2c1` was tested. Which “% Inhibition @ 10 uM” value did it give?
Its value is 0.467%.

For `COCCNC(=O)CCC(=O)N1Cc2ccccc2Oc2ncccc21`, which “% Inhibition @ 10 uM” value is on record?
Its value is 3.87%.

How did the “% Inhibition @ 10 uM” value turn out when `CCN1CCN(C2CCC(C)C2)CC1` (centres unmarked) was run?
Its value is -4.04%.

For `O=C1C2C3C=CC(CO)(O3)C2C(=O)N1c1cccc(Br)c1` (centres unmarked), which “% Inhibition @ 10 uM” value is on record?
The value was 3.74%.

How did the “% Inhibition @ 10 uM” value turn out when `CC1(C)C2CCC1(C(=O)O)c1nc3ccccc3nc12` (centres unmarked) was run?
Its value is -2.91%.

`CC(=O)Nc1ccc(OCC(O)CNC2CCN(C)CC2)cc1` (centres unmarked) was tested. Which “% Inhibition @ 10 uM” value did it give?
Its value is -7.23%.

How did the “% Inhibition @ 10 uM” value turn out when `N#CC1=C(N)Oc2[nH]nc(-c3ccccc3)c2C1c1cccc(Cl)c1` (centres unmarked) was run?
The value was -2.46%.

How did the “% Inhibition @ 10 uM” value turn out when `CCn1c2c(c3cc(Cl)ccc31)CCC/C2=N\O` was run?
Its value is -0.803%.

Which “% Inhibition @ 10 uM” value does the source give for `Cc1ccccc1C(=O)Nc1ccc(Cl)cc1Cl` here?
Its value is -3.04%.

How did the “% Inhibition @ 10 uM” value turn out when `COC(=O)c1cn(CC(=O)N2CCC(C)CC2)c2ccccc12` was run?
Its value is -3.64%.

`CCCCCCCCOc1ccc(/C=C(\C#N)c2nc(-c3cc4ccccc4oc3=O)cs2)cc1` was tested. Which “% Inhibition @ 10 uM” value did it give?
The value was -0.771%.

For `CNC(=O)/C(C#N)=C/c1c(Oc2ccccc2)nc2c(C)cccn2c1=O`, which “% Inhibition @ 10 uM” value is on record?
Its value is 3.63%.

For `CCOc1ccccc1C(=O)Nc1ccccc1F`, which “% Inhibition @ 10 uM” value is on record?
Its value is 5.31%.

How did the “% Inhibition @ 10 uM” value turn out when `Cc1ccc2[nH]c(C)c(CCNc3ncnc4c3oc3ccccc34)c2c1` was run?
Its value is 2.57%.

For `O=C(O)C1C2C=CC(O2)C1C(=O)Nc1nc2ccccc2s1` (centres unmarked), which “% Inhibition @ 10 uM” value is on record?
The value was -3.97%.
